# Assay results: article PMC4336329 (PLoS ONE, 2015)
# About 14,000 (4.5%) of roughly 310,000 compounds showed an effect of 50% or more. The effect is printed as a negative number. The list shows a part of the results.
# Biological target: human ether-à-go-go-related gene (hERG) potassium channel (human, UniProt Q12809)
# Test: primary screen, population patch clamp on CHO cells stably expressing hERG
# 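Also: peak tail current of the secondary pulse compared with the same well before compound.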
# Sequence of human ether-à-go-go-related gene (hERG) potassium channel (Q12809 whole entry, looked up): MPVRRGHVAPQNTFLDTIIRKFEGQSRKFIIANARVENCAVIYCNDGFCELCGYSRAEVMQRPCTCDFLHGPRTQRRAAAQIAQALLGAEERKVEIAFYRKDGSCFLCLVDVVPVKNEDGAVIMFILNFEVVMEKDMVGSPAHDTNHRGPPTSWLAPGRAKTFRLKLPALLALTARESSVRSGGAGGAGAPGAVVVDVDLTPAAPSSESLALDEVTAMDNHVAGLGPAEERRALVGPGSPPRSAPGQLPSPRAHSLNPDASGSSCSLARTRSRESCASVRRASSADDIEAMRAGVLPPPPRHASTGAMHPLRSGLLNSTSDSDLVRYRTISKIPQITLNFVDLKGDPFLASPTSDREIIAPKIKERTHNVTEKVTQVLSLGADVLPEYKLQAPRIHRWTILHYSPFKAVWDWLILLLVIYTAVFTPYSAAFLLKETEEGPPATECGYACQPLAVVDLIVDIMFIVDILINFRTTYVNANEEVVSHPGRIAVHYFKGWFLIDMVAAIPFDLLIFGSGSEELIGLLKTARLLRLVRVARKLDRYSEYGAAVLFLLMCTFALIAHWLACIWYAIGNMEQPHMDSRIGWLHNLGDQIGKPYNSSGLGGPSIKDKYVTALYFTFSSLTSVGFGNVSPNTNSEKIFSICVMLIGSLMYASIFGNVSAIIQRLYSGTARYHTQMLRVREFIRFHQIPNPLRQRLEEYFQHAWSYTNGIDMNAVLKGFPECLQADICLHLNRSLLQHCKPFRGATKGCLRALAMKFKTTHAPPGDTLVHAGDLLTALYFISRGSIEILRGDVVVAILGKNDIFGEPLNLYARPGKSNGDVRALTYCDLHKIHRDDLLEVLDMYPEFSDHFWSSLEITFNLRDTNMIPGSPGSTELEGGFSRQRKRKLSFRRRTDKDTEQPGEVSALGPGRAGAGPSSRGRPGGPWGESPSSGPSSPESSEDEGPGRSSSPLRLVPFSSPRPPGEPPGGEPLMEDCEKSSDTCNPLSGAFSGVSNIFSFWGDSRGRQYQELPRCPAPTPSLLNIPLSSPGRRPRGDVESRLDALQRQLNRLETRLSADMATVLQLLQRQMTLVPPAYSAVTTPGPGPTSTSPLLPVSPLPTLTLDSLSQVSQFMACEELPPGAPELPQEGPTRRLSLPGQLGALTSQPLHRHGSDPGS
row,SMILES,"hERG current change (%, negative = inhibition) at 10uM [%]"
1,Cc1cc(N2CCCC2)ccc1NC(=O)CN1C(=O)NC2(CCCCC2)C1=O,-15.1
2,Cn1c(Oc2ccccc2NCc2cc(Br)ccc2O)cc(=O)n(C)c1=O,4.67
3,CCN(CC)S(=O)(=O)c1ccc(N/N=C(\C)c2ccncc2)c([N+](=O)[O-])c1,13
4,Cc1nnc(Oc2ccccc2F)c2ccccc12,2.82
5,Cc1[nH]ccc(=O)c1Cc1c(Cl)cccc1Cl,-14.6
6,Cc1ccc(S(=O)(=O)N2CCN(Cc3cc4c(cc3Br)OCCO4)CC2)cc1,10.6
7,CCOc1ccc(N/C(C)=C/C(=O)c2ccc3c(c2)OCCO3)cc1,9.27
8,C/C(=N/NC(=O)c1ccc(Cl)s1)c1cccnc1,-20.2
9,CN(CC(=O)Nc1ccccc1Cl)C(=O)COC(=O)CSc1ccc(Cl)cc1,5.61
10,COc1ccc(/C=N/n2cnc3c([nH]c4ccccc43)c2=O)cc1COc1ccccn1,-8.67
11,N/C(=N\OC(=O)c1ccncc1)c1cccc([N+](=O)[O-])c1,-8.06
12,Cc1cc(C)c2c(CN3CCN(Cc4ccccc4)CC3)cc(=O)oc2c1C.Cl,-40.8
13,Cc1ccc(C(=O)CCC(=O)Nc2cc(C)ccn2)cc1,1.08
14,O=C(CCCOc1ccc(Cl)cc1)Nc1ccc(N2CCOCC2)cc1,4.66
15,Cc1cc(C)n(-c2nc3ccccc3nc2Nc2ccc3[nH]c(=O)[nH]c3c2)n1,2.92
16,CCN(CCCNC(=O)CCc1nc(-c2ccc(C)cc2)no1)c1cccc(C)c1,4.97
17,Cc1sc(NC(=O)CSc2nnc(COc3ccc(Cl)cc3)n2C)c(C#N)c1C,-9.16
18,c1ccc(CNc2ccc3ccccc3n2)nc1,-27.5
19,Cn1ccnc1C1CCCCN1C(=O)c1cc(COc2ccc(F)cc2Cl)on1 (stereo not shown),-24.1
20,Nc1nnn(CC(=O)N/N=C/c2ccccc2Cl)n1,15.5
21,c1ccc(-c2noc(-c3ccc4c(c3)OCO4)n2)nc1,12.2
22,Cc1ccc(C2OC34CCCCCC3C(C#N)(C(=N)O4)C2(C#N)C#N)cc1 (stereo not shown),14

row,SMILES,"hERG current change (%, negative = inhibition) at 10uM [%]"
1,O=C(NCCc1ccc2c(c1)OCCO2)c1cc2ccccc2o1,-35.7
2,S=C(NCCc1ccccn1)NC1CCCCC1,14.7
3,Cc1ccc(CNc2ccc(N3CCOCC3)c(C(=O)O)c2)s1,-23.4
4,Cc1ccc(S(=O)(=O)/N=C/c2ccco2)cc1,13.8
5,CCn1cc(C(=O)NCCCOC)c(=O)c2cc(S(=O)(=O)N(C)C)ccc21,14.3
6,COc1ccc(/C=C2/SC(=O)N(CCNC(=O)C3CCCN3C(=O)c3cccs3)C2=O)cc1 (stereo not shown),-22.8
7,CCCCOC(=O)N/N=C/C=C/c1ccccc1,-9.28
8,Cn1c(SCC(=O)NC2CCCCCC2)nnc1-c1ccco1,-9.27
9,CC(C)OCCCNC(=O)CCSc1ccc(Cl)cc1,-4.12
10,O=C(Cn1c(=O)n(-c2ccc(F)cc2)c(=O)c2sccc21)c1ccccc1,-20.5
11,N#Cc1c(-c2ccccc2)cc(-c2ccc3c(c2)OCO3)[nH]c1=O,7.02
12,CCOC(=O)C1CCCN(C(=O)CCn2nnnc2CN2CCOCC2)C1 (stereo not shown),18.4
13,CCC(C)n1c(=N)c(C#N)cc2c(=O)n3ccccc3nc21 (stereo not shown),-40.9
14,COC(=O)Cc1ccc2sc(-c3ccccc3)nc2c1,4.39
15,CCOc1ccc(CNc2ncnc(N)n2)cc1,-1.99
16,CC1(C)CC2c3cccc(C(=O)O)c3C(=O)N2c2c1ccc1ccccc21 (stereo not shown),8.94
17,COC(=O)[C@@]1(Cc2ccc(F)cc2)[C@H]2c3cc(C(=O)N(C)C)n(Cc4c(CO)[nH]cc(C)c4=O)c3C[C@H]2CN1C(=O)c1ccccc1,11.9
18,Cc1cccc(OCCCC(=O)Nc2ccc(S(=O)(=O)Nc3onc(C)c3C)cc2)c1C,13
19,CCn1nc(NS(=O)(=O)c2ccccc2)c2cc3cccc(C)c3nc21,6.7
20,COc1ccc(Nc2c(-c3ccc(OC)cc3)nc3cnccn23)cc1,-27.6
21,COC(=O)/C(C#N)=C/c1c(N2CCN(c3ccccc3)CC2)nc2ccccn2c1=O,-33.9
22,COC(=O)c1ccc(COc2ncnc3ccccc23)o1,15.4

row,SMILES,"hERG current change (%, negative = inhibition) at 10uM [%]"
1,Cc1c(C(=O)OC(C)C)sc(NC(=O)C2CCCO2)c1C(=O)OC(C)C (stereo not shown),2.16
2,O=C(c1cccs1)N1CCCC(c2nc3c(nnn3Cc3ccc(F)cc3)c(=O)[nH]2)C1 (stereo not shown),17.8
3,CC1(C)CC(=O)C=C(Nc2ccc(Br)cn2)C1,8.81
4,CN(C)C(=O)Oc1noc2cc(Cl)ccc12,-4.47
5,O=C(Cn1nc(C(F)(F)F)c2c1CCCC2)NCc1ccco1,-12.1
6,CCc1nnc(NC(=O)CSc2nnc(-c3ccco3)o2)s1,12.1
7,COc1ccc(S(=O)(=O)N2CCN(Cc3ccco3)CC2)cc1.O=C(O)C(=O)O,13.9
8,Cc1c(C(=O)OC2CCC(C)CC2)[nH]c2c1C(=O)CCC2 (stereo not shown),-3.25
9,COc1cccc(NS(=O)(=O)c2ccc(S(=O)(=O)N3CCOCC3)cc2)c1,-7.99
10,CC1CCCCC1NC(=O)C1CCN(S(=O)(=O)c2cccc3nonc23)CC1 (stereo not shown),6.82
11,COc1ccc(CCNC(=O)CN(c2ccc(OC)c(OC)c2)S(C)(=O)=O)cc1,3.96
12,CN(CC(=O)Nc1ccc(S(=O)(=O)N2CCCC2)cc1)CC(=O)Nc1ccc(F)c(F)c1F,-0.661
13,CC1(c2ccccc2)NC(=O)N(CC(=O)Nc2ccccc2N2CCCC2)C1=O (stereo not shown),13.4
14,Cc1noc(/C=C/N(C)C)c1S(=O)(=O)N1CCCC(C(=O)NCCC2=CCCCC2)C1 (stereo not shown),3.98
15,NC(=O)c1ccc(NCc2ccco2)c([N+](=O)[O-])c1,6.16
16,CC(=O)c1c(C)[nH]c(C(=O)OCn2nnc3ccccc3c2=O)c1C,9.87
17,Cc1nc([N+](=O)[O-])cn1CC(=O)Nc1ccc(Cl)cc1,5.72
18,Cc1ccccc1C(=O)OCCCN=C1NS(=O)(=O)c2ccccc21,-5.11
19,S=C1NCCNC(=S)NCCOCCN1,22.4
20,Cn1c(=O)c(C(=O)Nc2ccccc2S(N)(=O)=O)c(O)c2ccccc21,-7.99
21,COc1cc(Cl)c([C@@H]2C[C@H]3CN(c4ccccc4)C(=O)[C@]34CCCN24)cc1OC,-70.9
22,CN(C)c1ccc(/C=C(/C(=O)c2ccc(Cl)cc2Cl)n2cncn2)cc1,-10.4

row,SMILES,"hERG current change (%, negative = inhibition) at 10uM [%]"
1,COCCN(C(=S)Nc1ccc(C(C)C)cc1)C(C)c1cccs1 (stereo not shown),8.26
2,Cc1c(NC(=O)C(C)OC(=O)/C=C/c2ccc(OC(F)F)cc2)c(=O)n(-c2ccccc2)n1C (stereo not shown),-23.1
3,CC(C)[C@H](NC(=O)[C@H]1N2C(=O)c3ccccc3C2SC1(C)C)C(=O)NCc1ccco1 (stereo partly shown),2.21
4,Cc1cc(=O)oc2cc(OC(C)C(=O)Nc3ccc(N4CCCCC4)cc3)ccc12 (stereo not shown),23.6
5,Nc1ccc(N=Nc2ccccc2)c2cccnc12,17.2
6,O=C(Nc1ccc2c(c1)C(=O)NC2=O)c1cccc(Cl)c1,11.3
7,Cc1ccc2nc(/C(C#N)=C/c3ccc(O)c(O)c3)[nH]c2c1,7.82
8,CCCCN(Cc1ccccc1)C(=O)C1CCN(S(=O)(=O)c2c(C)noc2C)CC1,17.5
9,O=C(CNC(=O)/C(=C/c1ccccc1)NC(=O)c1ccc(Br)cc1)OCc1ccccc1,-64
10,C=CCNC(=O)Nc1ccc(Br)cc1Cl,13.8
11,Cc1c(O)ccc2c(CC(=O)N[C@@H](Cc3ccccc3)C(=O)O)cc(=O)oc12,14.7
12,Cl.OCCNCc1c(OCc2ccc(Cl)cc2)ccc2ccccc12,-77.4
13,Cc1cc(=O)cc(C)[nH]1,3.9
14,Cc1nn(Cc2ccccc2Cl)c(C)c1N,5
15,CC(C)S(=O)(=O)c1csc(NC(=O)Nc2cc(Cl)ccc2Cl)c1Cl,0.66
16,O=C(CCc1nnc2n(CCc3ccccc3)c(=O)c3ccccc3n12)NCCCN1CCCCC1,-77.6
17,CCOC(=O)c1cn(Cc2ccc(Cl)cc2Cl)c2cc(C)nn2c1=O,-35.2
18,Cc1ccc(C(=O)OCC(=O)Nc2cccc(S(=O)(=O)NC3=NCCCCC3)c2)c(C)c1,-15.4
19,O=S(=O)(c1ccc(F)cc1)n1ccc(-c2cccc(OCc3ccc(Cl)cc3Cl)c2)n1,13.4
20,CCCCCCCCCCCCCCCC[n+]1cccc2ccccc21.[I-],-71.2
21,CC(=O)c1ccc(Oc2nc3c(c(=O)n(C)c(=O)n3C)n2C)cc1,-2.77
22,CN(Cc1cccc(F)c1)C(=O)CN1C(=O)NC2(CCc3ccccc32)C1=O (stereo not shown),-0.338
